The whole screen tested about 410,000 compounds, of which about 5,000 (1.2%) were called active. The inconclusive results got no clear call from the source; some entries with a clear call stand among them for comparison. Calls come from the whole dose curve; as a rule, active = well fitted inhibition curve with a large enough effect; inconclusive = small, poorly fitted or top-dose-only effect; inactive = no such curve, though single readings can be large or run the other way. Potencies of inconclusive entries are doubtful fits and often do not repeat.
Test: qHTS for Inhibitors of TGF-b; note: nearly all actives have a fitted effect of over 65% in size
Conditions: HepG2 CAGA-GFP TGF-b/SMAD3 reporter, GFP fluorescence, 18 h, TGF-beta stimulated, 500 pg/mL final; series mostly up to 46.1 µM; activity, negative = inhibition: at the top concentration
In short: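 HEPG2 CAGA-GFP reporter cells (1000/well, DMEM with 1% FBS) received compounds, then recombinant TGF-beta at 500 pg/mL final for 18 hours at 37 degrees C. Per-cell GFP summed per well was normalised to unstimulated and stimulated DMSO controls before curve fitting.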
% is set by controls: 0 for no effect and ±100 for the full control effect; potency is the fitted concentration of half-maximal effect; tags give direction and shape of the fitted curve.

SMILES | Potency | activity, negative = inhibition
O=C(Nc1ccc2nc(SCC(=O)N3CCCC3)sc2c1)c1ccccc1 | inconclusive: 2 µM [inhibitor, partial curve, poor fit] | 
CCOc1ccccc1NC(=O)CSc1nc2ccccc2c2nc(CCn3cncc3C)nn12 | inconclusive: 31.6 µM [inhibitor, single point] | 
CCOC(=O)CNC(=O)Nc1cc(C(=O)NCc2cccc(F)c2)ccc1N1CCCC1 | inconclusive: 20 µM [inhibitor, single point] | 
CC1(C(=O)Nc2cccc(C(F)(F)F)c2)Cc2c(-c3ccccc3)ccnc2O1 (configuration not stated) | inconclusive: 35.5 µM [inhibitor, single point] | 
CCn1nc(NS(=O)(=O)c2ccccc2)c2cc3cc(C)ccc3nc21 | inconclusive: 15.8 µM [inhibitor, single point] | 
Cc1ccc(-c2nc3scc(CCNC(=O)c4cccc(Br)c4)n3n2)cc1 | inconclusive: 22.4 µM [inhibitor, partial curve, poor fit] | 
COc1ccc(NC(=O)c2ccc3nc(CCc4ccccc4)oc3c2)cc1 |  | inactive: 8.1%
NC(=S)N1N=C(c2ccccc2)CC1=O | inconclusive: 14.1 µM [inhibitor, single point] | 
CN(C)C(=O)CCc1ccc2c3c([nH]c2c1)[C@]1(CCC2CCCC2)[C@@H](C(=O)N2CCOCC2)C[C@H](CC(=O)NCCc2ccccn2)C(=O)N1CC3 | inconclusive: 7.08 µM [inhibitor, full curve, poor fit] | 
CC(=O)c1cc(-c2ccc(F)cc2)n(CCC(=O)NCc2ccccc2C)c1C |  | inactive: 4.31%
COc1ccc(-c2noc(C3CCCN(C(=O)CCc4ccccc4)C3)n2)cc1 (configuration not stated) |  | inactive: -5.94%
O=C1CC(c2ccccc2Cl)CC(O)=C1C=NCCCO (configuration not stated) |  | inactive: -1.04%
COc1ccc(S(=O)(=O)N(Cc2nc(-c3ccc(C)cc3)no2)C2CCCCC2)cc1 | inconclusive: 22.4 µM [inhibitor, partial curve, poor fit] | 
CC(C)(C)OC(=O)NCc1ccc(CNC(=O)c2nc[nH]c2C(=O)N2CCc3ccccc3C2)cc1 | inconclusive: 7.08 µM [inhibitor, partial curve, poor fit] | 
COc1ccc(OC)c(NC(=O)CCN2CCN(c3ccccc3OC)CC2)c1 | inconclusive: 35.5 µM [inhibitor, single point] | 
Cc1cccc(CN2CCN(C3CN(C4CCCCC4)S(=O)(=O)C3)CC2)c1 (configuration not stated) | inconclusive: 7.94 µM [inhibitor, partial curve, poor fit] | 
O=C(CCc1c[nH]c2ccccc12)N[C@@H](Cc1c[nH]c2ccc(O)cc12)C(=O)O |  | inactive: 0%
Cc1ccc(CNC(=O)CCCn2nc(C)n3ccnc3c2=O)cc1 |  | inactive: 16.1%
CC(=O)N(CCC(Cc1ccccc1)c1ccc2c(c1)OCO2)Cc1ccc(Cl)cc1 (configuration not stated) | inconclusive: 35.5 µM [inhibitor, single point] | 
COc1cccc(OC)c1-c1nn2c(-c3cc(-c4ccccc4)n[nH]3)nnc2s1 | inconclusive: 22.4 µM [inhibitor, single point] | 
O=C(CC1SC(N2CCCC2)=NC1=O)Nc1ccc(C(=O)Nc2ncccc2O)cc1 (configuration not stated) | inconclusive: 11.2 µM [inhibitor, partial curve] | 

SMILES | Potency | activity, negative = inhibition
O=C1[C@@H]2CSC(c3ccc(F)cc3)N2C(=O)N1c1ccc(Cl)cc1 (some centres not stated) | inconclusive: 28.2 µM [inhibitor, single point] | 
Cc1cc(S(=O)(=O)NCc2ccncc2)c(C)cc1Br | inconclusive: 10 µM [inhibitor, partial curve] | 
CC1(C)CC(=O)C2=C(C1)OC(N)=C(C#N)C2c1ccccc1 (configuration not stated) | inconclusive: 7.94 µM [inhibitor, partial curve, poor fit] | 
COc1ccc(C(=O)Nc2ccc3[nH]c(-c4cccc(OC)c4)cc(=O)c3c2)cc1 | inconclusive: 1 µM [inhibitor, full curve, poor fit] | 
CCc1ccc(-n2c(=O)c3c4c(sc3n(Cc3ccc(F)cc3)c2=O)CCCC4)cc1 |  | inactive: -7.1%
O=C(Cn1c(=O)n(Cc2ccco2)c(=O)c2c3c(sc21)CCCCC3)Nc1ccccc1 | inconclusive: 35.5 µM [inhibitor, single point] | 
COc1cc2c(C(=O)N3CCN(c4ccccc4F)CC3)cn(C)c(=O)c2cc1OC |  | inactive: 14.3%
Nc1cc(=O)[nH]c(SCCOc2ccccc2)n1 |  | inactive: 2.76%
O=C(Nc1ccc(Nc2ccncc2)cc1)c1ccc([N+](=O)[O-])cc1 | active: 17.8 µM | 
CN[C@H](C)CCC=C(C)C | inconclusive: 35.5 µM [inhibitor, single point] | 
COc1ccc(-n2c(SCC(=O)NCC3CCCO3)nc3c(c2=O)SC(C)C3)cc1 (configuration not stated) |  | inactive: 9.91%
O=C(COc1ccccc1[N+](=O)[O-])NCCCN1CCCC1=O |  | inactive: 4.61%
CCOc1ccccc1NC(=O)C(C)Sc1cc(-c2ccccc2)nc(C)n1 (configuration not stated) | inconclusive: 12.6 µM [inhibitor, partial curve, poor fit] | 
C#CCN(C[C@@H]1[C@@H](OC(=O)NCc2ccc(OC)c(OC)c2)[C@@H](OC(=O)NCc2ccc(OC)c(OC)c2)Cn2c(=O)ccc(=O)n21)S(=O)(=O)c1ccc(C)cc1 | inconclusive: 35.5 µM [inhibitor, single point] | 
C/C(=N/NC(=O)c1cc(-c2ccc(Br)s2)[nH]n1)c1ccco1 | inconclusive: 35.5 µM [inhibitor, single point] | 
Cc1ccccc1NC(=S)NC(NC(=O)COc1ccccc1)C(Cl)(Cl)Cl (configuration not stated) |  | inactive: -16.8%
Cc1nnc(NC(=O)c2nc(S(=O)(=O)Cc3ccccc3C)ncc2Cl)s1 | inconclusive: 35.5 µM [inhibitor, single point] | 
Cc1ccc(NC(=O)C2CCCN2C(=O)NCc2ccccc2)cc1 (configuration not stated) | inconclusive: 1.41 µM [inhibitor, partial curve, poor fit] | 
COc1ccc(NC(=O)Cn2c(SCc3cccc(Cl)c3)nc3ccncc32)c(OC)c1OC | inconclusive: 12.6 µM [inhibitor, partial curve, poor fit] | 
COc1ccc(S(=O)(=O)Nc2cccc3c2O[C@H](CN(C)C(=O)Nc2ccccc2)[C@@H](C)CN([C@H](C)CO)C3=O)cc1 |  | inactive: -5.1%
Cc1ccc(CC(=O)NCCC(=O)O)cc1 |  | inactive: -1.44%

SMILES | Potency | activity, negative = inhibition
CCOC(=O)c1c(NC(=O)C2C3C=CC(C3)C2C(=O)O)sc2c1CCC(C)C2 (configuration not stated) | inconclusive: 10 µM [inhibitor, partial curve, poor fit] | 
CCCCCOCC1CC(C/C(C)=N/Nc2nc(-c3ccccc3)cs2)C(=O)O1 (configuration not stated) |  | inactive: 6.47%
COc1ccccc1/C=C/C1(C(=O)NC2CCCC2)CC(=O)N1c1ccc(C)cc1 (configuration not stated) | inconclusive: 35.5 µM [inhibitor, single point] | 
O=C(COc1ccc(/C=N/NC(=O)c2cc3ccccc3o2)cc1Cl)Nc1ccccc1 | active: 2 µM | 
CC(=O)c1sc(NC(=O)CCS(=O)(=O)c2ccc(Cl)cc2)nc1C | inconclusive: 28.2 µM [inhibitor, partial curve, poor fit] | 
CC(C)C/C(O)=C/c1nc2cc(Cl)ccc2oc1=O | inconclusive: 22.4 µM [inhibitor, single point] | 
COc1cccc(-c2cc(CNC(=O)[C@H]3O[C@@H](n4cnc5c(N)ncnc54)[C@H](O)[C@@H]3O)no2)c1 | inconclusive: 35.5 µM [inhibitor, single point] | 
COC(CNC(=O)C1CCCN(S(=O)(=O)c2c(C)noc2/C=C/c2cccs2)C1)OC (configuration not stated) | inconclusive: 5.01 µM [inhibitor, full curve] | 
COC(=O)/C=C1/N/C(=N\c2nc(C)cc(C)n2)N(c2cccc(C)c2)C1=O | inconclusive: 7.08 µM [inhibitor, partial curve] | 
Cc1ccc(S(=O)(=O)N(C)CC(=O)N2CCN(Cc3ccc4c(c3)OCO4)CC2)cc1 |  | inactive: -21%
COc1cc(CNCc2ccccn2)ccc1OCc1c(Cl)cccc1Cl | inconclusive: 35.5 µM [inhibitor, single point] | 
COC(=O)c1nnn(CC(=O)Nc2cccc(Cl)c2C)c1C(=O)OC | inconclusive: 35.5 µM [inhibitor, single point] | 
CCn1nc(C(=O)N[C@@H](CCSC)c2nc3ccccc3[nH]2)c2ccccc2c1=O | inconclusive: 35.5 µM [inhibitor, single point] | 
O=C1NC(c2ccc(-c3ccccc3[N+](=O)[O-])o2)C(C(=O)c2ccc(F)cc2)C(O)(C(F)(F)F)N1 (configuration not stated) | inconclusive: 35.5 µM [inhibitor, single point] | 
Cc1ccc(-c2cc(C(=O)N3CC(C)CC(C)C3)c3ccccc3n2)o1 (configuration not stated) |  | inactive: -7.95%
CCC/C=C/c1ccc(CN2C(C(C)C)C(=O)N(Cc3cn(CCC4OCCO4)nn3)CCS2(=O)=O)cc1 (configuration not stated) | inconclusive: 15.8 µM [inhibitor, single point] | 
CCCOc1ccc(C(=O)NC(=S)NNC(=O)c2c(-c3ccccc3)noc2C)cc1 | inconclusive: 3.16 µM [inhibitor, single point] | 
CN1CCN(C(=O)CN(c2cc(C(F)(F)F)ccc2Cl)S(C)(=O)=O)CC1 | inconclusive: 0.501 µM [inhibitor, partial curve, poor fit] | 
CCCCCc1cc(=O)oc2c(C(CCN3CCCC(C)C3)c3ccc(OC)cc3)c(OC)cc(OC)c12 (configuration not stated) | inconclusive: 25.1 µM [inhibitor, single point] | 
CC(NS(=O)(=O)c1ccc(OCC(=O)Nc2cccc([N+](=O)[O-])c2)cc1)c1ccccc1 (configuration not stated) | inconclusive: 35.5 µM [inhibitor, single point] | 
